# Test results reported in the supplement of paper PMC4967469.
# A lower IC50 marks a more sensitive line; fits outside the tested doses are given as limits. AUC is the area under the same curve over the 256-fold range up to the top dose, as a fraction; the more sensitive the line, the further below 1. Where the top dose is marked as inferred, it comes from the curve model; the source does not state it.
# Compound: Cc1ccc(-c2c(C(=O)CF)n(CCCO)c3ncnc(N)c23)cc1 [FMK]
# Test: Viability of human cancer cell lines after 72 h of drug (GDSC screen)
# Details: top dose inferred
# Description: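 Human cancer cell lines in 384-well plates, medium with 10% serum, drug for 72 h over a 256-fold dose range (nine 2-fold or five 4-fold steps up to the top dose). Adherent lines were fixed and stained with the nucleic acid dye Syto60, suspension lines read with resazurin; signal relative to control wells, capped at 0 and 100%. One two-parameter sigmoid per drug and line, fitted in a mixed model over all curves with the slope shared within a line.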
Cell Line,AUC,IC50 [µM]
"SCC-3 (B-cell lymphoma, suspension, top dose 20 µM)",0.997,> 20
"SCC-4 (head and neck, adherent, top dose 20 µM)",0.982,> 20
"SCC-9 (head and neck, adherent, top dose 20 µM)",0.925,> 20
"SCC-15 (head and neck, adherent, top dose 20 µM)",0.977,> 20
"SCC-25 (head and neck, adherent, top dose 20 µM)",0.973,> 20
"SCH (stomach, adherent, top dose 20 µM)",0.988,> 20
"SF126 (glioma, adherent, top dose 20 µM)",0.985,> 20
"SF268 (glioma, adherent, top dose 20 µM)",0.966,> 20
"SF295 (glioma, adherent, top dose 20 µM)",0.974,> 20
"SF539 (glioma, adherent, top dose 20 µM)",0.984,> 20
"SH-4 (melanoma, adherent, top dose 20 µM)",0.932,> 20
"SHP-77 (small cell lung carcinoma, semi-adherent, top dose 20 µM)",0.991,> 20
"SIG-M5 (acute myeloid leukaemia, suspension, top dose 20 µM)",0.961,> 20
"SISO (cervix, adherent, top dose 20 µM)",0.965,> 20
"SJRH30 (rhabdomyosarcoma, adherent, top dose 20 µM)",0.981,> 20
"SJSA-1 (bone, adherent, top dose 20 µM)",0.983,> 20
"SK-CO-1 (large intestine, adherent, top dose 20 µM)",0.989,> 20
"SK-ES-1 (Ewing sarcoma, semi-adherent, top dose 20 µM)",0.966,> 20
"SK-HEP-1 (liver, adherent, top dose 20 µM)",0.979,> 20
"SK-LMS-1 (soft tissue, adherent, top dose 20 µM)",0.986,> 20
"SK-LU-1 (lung adenocarcinoma, adherent, top dose 20 µM)",0.977,> 20

Cell Line,AUC,IC50 [µM]
"SK-MEL-1 (melanoma, suspension, top dose 20 µM)",0.993,> 20
"SK-MEL-2 (melanoma, adherent, top dose 20 µM)",0.984,> 20
"SK-MEL-3 (melanoma, adherent, top dose 20 µM)",0.967,> 20
"SK-MEL-5 (melanoma, adherent, top dose 20 µM)",0.969,> 20
"SK-MEL-24 (melanoma, adherent, top dose 20 µM)",0.978,> 20
"SK-MEL-28 (melanoma, adherent, top dose 20 µM)",0.986,> 20
"SK-MEL-30 (melanoma, adherent, top dose 20 µM)",0.958,> 20
"SK-MES-1 (lung squamous cell carcinoma, adherent, top dose 20 µM)",0.977,> 20
"SK-MG-1 (glioma, adherent, top dose 20 µM)",0.97,> 20
"SK-MM-2 (myeloma, suspension, top dose 20 µM)",0.986,> 20
"SK-N-AS (neuroblastoma, adherent, top dose 20 µM)",0.958,> 20
"SK-N-DZ (neuroblastoma, adherent, top dose 20 µM)",0.982,> 20
"SK-N-SH (neuroblastoma, adherent, top dose 20 µM)",0.983,> 20
"SK-OV-3 (ovary, adherent, top dose 20 µM)",0.935,> 20
"SK-PN-DW (Ewing sarcoma, adherent, top dose 20 µM)",0.983,> 20
"SK-UT-1 (soft tissue, adherent, top dose 20 µM)",0.988,> 20
"SKG-IIIa (cervix, adherent, top dose 20 µM)",0.983,> 20
"SKN (uterus, adherent, top dose 10.24 µM)",0.958,> 10.2
"SLVL (B-cell lymphoma, suspension, top dose 20 µM)",0.938,> 20
"SN12C (kidney, adherent, top dose 20 µM)",0.986,> 20
"SNB75 (glioma, adherent, top dose 20 µM)",0.968,> 20

Cell Line,AUC,IC50 [µM]
"SNG-M (endometrium, adherent, top dose 20 µM)",0.739,5.94
"SNU-182 (liver, adherent, top dose 10.24 µM)",0.96,> 10.2
"SNU-387 (liver, adherent, top dose 20 µM)",0.979,> 20
"SNU-398 (liver, adherent, top dose 20 µM)",0.965,> 20
"SNU-423 (liver, adherent, top dose 20 µM)",0.948,> 20
"SNU-449 (liver, adherent, top dose 20 µM)",0.975,> 20
"SNU-475 (liver, adherent, top dose 20 µM)",0.98,> 20
"SNU-C1 (large intestine, suspension, top dose 20 µM)",0.964,> 20
"SNU-C2B (large intestine, adherent, top dose 20 µM)",0.95,> 20
"SR (lymphoid neoplasm, suspension, top dose 20 µM)",0.975,> 20
"ST486 (Burkitt lymphoma, suspension, top dose 20 µM)",0.936,> 20
"STS-0421 (soft tissue, adherent, top dose 20 µM)",0.894,> 20
"SU8686 (pancreas, adherent, top dose 20 µM)",0.975,> 20
"SU-DHL-1 (anaplastic large cell lymphoma, suspension, top dose 20 µM)",0.992,> 20
"SU-DHL-4 (B-cell lymphoma, suspension, top dose 20 µM)",0.997,> 20
"SU-DHL-5 (B-cell lymphoma, suspension, top dose 20 µM)",0.987,> 20
"SU-DHL-6 (B-cell lymphoma, suspension, top dose 20 µM)",0.963,> 20
"SU-DHL-8 (B-cell lymphoma, suspension, top dose 20 µM)",0.962,> 20
"SU-DHL-10 (B-cell lymphoma, suspension, top dose 20 µM)",0.997,> 20
"SU-DHL-16 (B-cell lymphoma, suspension, top dose 20 µM)",0.996,> 20
"SUIT-2 (pancreas, adherent, top dose 20 µM)",0.912,> 20

Cell Line,AUC,IC50 [µM]
"SUP-B15 (lymphoblastic leukaemia, suspension, top dose 20 µM)",0.935,> 20
"SUP-HD1 (Hodgkin lymphoma, suspension, top dose 20 µM)",0.986,> 20
"SUP-M2 (anaplastic large cell lymphoma, suspension, top dose 20 µM)",0.972,> 20
"SUP-T1 (T-cell lymphoblastic leukaemia, suspension, top dose 20 µM)",0.935,> 20
"SW13 (adrenal gland, adherent, top dose 20 µM)",0.988,> 20
"SW48 (large intestine, adherent, top dose 20 µM)",0.984,> 20
"SW156 (kidney, adherent, top dose 20 µM)",0.981,> 20
"SW620 (large intestine, adherent, top dose 20 µM)",0.974,> 20
"SW626 (ovary, adherent, top dose 20 µM)",0.938,> 20
"SW780 (bladder, adherent, top dose 20 µM)",0.976,> 20
"SW837 (large intestine, adherent, top dose 20 µM)",0.967,> 20
"SW872 (soft tissue, adherent, top dose 20 µM)",0.989,> 20
"SW900 (lung squamous cell carcinoma, adherent, top dose 20 µM)",0.969,> 20
"SW948 (large intestine, adherent, top dose 20 µM)",0.981,> 20
"SW954 (urogenital system, adherent, top dose 20 µM)",0.956,> 20
"SW962 (urogenital system, adherent, top dose 20 µM)",0.97,> 20
"SW982 (soft tissue, adherent, top dose 20 µM)",0.983,> 20
"SW1088 (glioma, adherent, top dose 20 µM)",0.975,> 20
"SW1116 (large intestine, adherent, top dose 20 µM)",0.983,> 20
